Measurements as given in PubChem BioAssay AID1345082 (National Center for Advancing Translational Sciences (NCATS), 2018).
The campaign covered roughly 94,000 compounds. About 4,000 (4.3%) were called active. The inconclusive results got no clear call from the source; some entries with a clear call stand among them for comparison. Calls come from the whole dose curve; as a rule, active = well fitted inhibition curve with a large enough effect; inconclusive = small, poorly fitted or top-dose-only effect; inactive = no such curve, though single readings can be large or run the other way. Potencies of inconclusive entries are doubtful fits and often do not repeat.
Potency is the fitted concentration of half-maximal effect; tags give direction and shape of the fitted curve.

Experiment: Cytotoxic Profiling in NIH 3T3 Cell Line of Diverse Libraries Using Quantitative High-Throughput Screening; note: nearly all actives have a fitted effect of over 55% in size
Conditions: NIH 3T3 viability, CellTiter-Glo ATP luminescence, 48-72 h; series mostly up to 96.7 µM
Method in brief: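 Viability of NIH 3T3 cells after 48 or 72 hr compound treatment at 37 °C was assessed by CellTiter-Glo, with luminescence imaged following a 10 min room-temperature step.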
In the case of `CC(C)CC(NC(=O)C1=NNC(=O)CC1)c1nnc2n1CCNCC2` (stereo unspecified), the Potency is reported as “inactive”.
For `COc1ccc(F)cc1-c1cccc(C(=O)NCCNC(=O)c2ccc(F)cc2)c1`, the Potency was inconclusive: 44.7 µM [inhibitor, partial curve, poor fit].
With `C[C@H]1CCCN1C(=O)c1nnc(CNc2ccc(C(=O)O)cc2)n1-c1ccccc1` the Potency was inconclusive: 100 µM [inhibitor, partial curve, poor fit].
In the case of `Cc1ccccc1CNC(=O)C1CCCN(Cc2ccncc2)CCC(=O)NCC1` (stereo unspecified), the Potency is reported as “inactive”.
In the case of `CN1C(=O)[C@@H]2C[C@@H](CN2Cc2ccccc2F)Oc2ccccc21`, the Potency is reported as “inactive”.
For `CCC(C)C1=NS(=O)(=O)c2cc(NC(=O)C(C)C)ccc2N1c1ccccc1` (stereo unspecified), the Potency was inconclusive: 44.7 µM [inhibitor, partial curve, poor fit].
For `O=C(c1ccc(Cl)cc1)N1CCc2sc(C(=O)N3CCOCC3)cc2C1`, the Potency was inconclusive: 39.8 µM [inhibitor, partial curve].
In the case of `O=[S+]([O-])(c1ccccc1)N1CC2(COCCN(c3nccc(C(F)(F)F)n3)C2)C1`, the Potency is reported as inconclusive: 100 µM [inhibitor, partial curve, poor fit].
With `CN(C)c1ccc2nnc(-c3cc(C(=O)NCc4ccccc4)ccn3)n2n1` the Potency was inconclusive: 79.4 µM [inhibitor, partial curve].
In the case of `COc1ccc(CC(=O)N2CCC(c3n[nH]c(=O)n3Cc3ccc(F)cc3)CC2)cc1`, the Potency is reported as inconclusive: 28.2 µM [inhibitor, full curve, poor fit].
For `O=C(c1nc2sccn2c1Br)N1CCCC1`, the Potency was “inactive”.
For `C=CCNC(=O)c1cccc2c(C)nnn12`, the Potency was “inactive”.
In the case of `O=C(CCC1CCCC1)N1CCc2nn(Cc3ccccc3)c(=O)n2CC1`, the Potency is reported as inconclusive: 44.7 µM [inhibitor, partial curve, poor fit].
With `COc1cccc(CC(=O)N2CCC(n3cc(-c4nc(-c5ccccc5)no4)nn3)CC2)c1` the Potency was inconclusive: 11.2 µM [inhibitor, full curve, poor fit].
In the case of `Cn1c(=O)[nH]cc(CC(=O)N2C[C@@H](C(=O)O)[C@H](c3ccncc3)C2)c1=O`, the Potency is reported as “inactive”.
With `COCCO[C@H]1C(=O)N(C2CCN(C(=O)c3ocnc3C)CC2)[C@H]1c1ccncc1` the Potency was “inactive”.
With `CCc1ccc(CN2C(=O)C3(CCOCC3)CC2c2nnnn2CCOC)cc1` (stereo unspecified) the Potency was “inactive”.
For `CCS(=O)(=O)N1CCC2(CC1)CC(N1CCN(C(C)=O)CC1)CCO2` (stereo unspecified), the Potency was “inactive”.
With `O=C(Nc1ccccc1F)C1CCCN(Cc2cccc(-c3ccc(F)cc3F)c2)C1` (stereo unspecified) the Potency was inconclusive: 50.1 µM [inhibitor, partial curve, poor fit].
For `COc1cccc(-c2cc(C(=O)NCC3CC3)c3cnn(C)c3n2)c1`, the Potency was inconclusive: 89.1 µM [inhibitor, partial curve, poor fit].
With `C#CCN(C)C[C@@H]1C=C(C)[C@H](Cc2nnc(-c3ccccc3F)o2)C[C@H]1C(C)C` the Potency was active: 79.4 µM.
With `Cc1ccn(CC(=O)N2CCCC(CCc3ccccc3C)C2)n1` (stereo unspecified) the Potency was inconclusive: 44.7 µM [inhibitor, partial curve, poor fit].
In the case of `COCCN1Cc2nc(OCc3ccc(F)cc3)ccc2OCC1=O`, the Potency is reported as inconclusive: 89.1 µM [inhibitor, partial curve, poor fit].
With `COc1ccc(CCNC(=O)c2nc3cccnc3n(CCc3ccccc3)c2=O)cc1` the Potency was inconclusive: 50.1 µM [inhibitor, partial curve, poor fit].
For `Cc1cccc(C)c1OCc1cc(C(=O)N(C)CCCC2CCCC2)no1`, the Potency was “inactive”.
In the case of `Cc1ccc(C(=O)NCCNC(=O)c2ccc(-c3cncnc3)cc2)cc1`, the Potency is reported as “inactive”.
For `O=C(NC1CCN(c2ccnc3ccnn23)C1)c1ccc2c(c1)OCO2` (stereo unspecified), the Potency was inconclusive: 25.1 µM [inhibitor, partial curve].
With `NC(=O)c1ccc(S(=O)(=O)N2CC[C@@H](CC(=O)O)[C@@H](CC3=NCCc4ccccc43)C2)cc1` the Potency was “inactive”.
With `CN(C)c1cccc(Oc2nnnn2[C@H]2CO[C@H]3[C@@H]2OC[C@@H]3NS(=O)(=O)c2ccccc2C#N)c1` the Potency was inconclusive: 79.4 µM [inhibitor, partial curve].
For `CC1(C)[C@H](Cc2cc(CN3CCCCC3)on2)C[C@@H]1NC(=O)c1ccccc1`, the Potency was inconclusive: 44.7 µM [inhibitor, partial curve, poor fit].
With `CC(=O)N1CCNc2cc(Nc3cccc(N(C)C)c3)ncc2C1` the Potency was inconclusive: 39.8 µM [inhibitor, full curve].
For `Cc1ccc2[nH]c(=O)c(CCC(=O)NC3CCN(Cc4ccccc4)CC3)cc2c1`, the Potency was “inactive”.
With `O=C(NCc1cccc(Cl)c1)c1ccc(Cn2ccn3nc4c(c3c2=O)CCCC4)cc1` the Potency was inconclusive: 17.8 µM [inhibitor, full curve].
With `O=C(c1ccco1)N1C[C@@H]2C(CN(CC#Cc3ccccc3)C3CC3)[C@@H]2C1` (stereo partly specified) the Potency was inconclusive: 89.1 µM [inhibitor, single point].
In the case of `O=C(c1ccc(F)cc1)N1CCC2(C1)C(=O)N(CCc1ccccc1)c1ccccc12` (stereo unspecified), the Potency is reported as inconclusive: 50.1 µM [inhibitor, partial curve, poor fit].
In the case of `CC(=O)Nc1ccc(C(=O)NC[C@@H]2C=C(C)[C@H](Cc3nnc(-c4ccccc4F)o3)C[C@H]2C(C)C)cc1`, the Potency is reported as inconclusive: 28.2 µM [inhibitor, partial curve].
With `O=C(NC1CC1)c1nc(-c2cccnc2)c2cnccn12` the Potency was inconclusive: 25.1 µM [inhibitor, full curve, poor fit].
With `Cc1nc(-c2ccc(F)cc2)n(CC(=O)Nc2cc(C(F)(F)F)ccc2Cl)c(=O)c1CCO` the Potency was inconclusive: 70.8 µM [inhibitor, partial curve, poor fit].
In the case of `O=C(Nc1ccc2c(N3CCCC3)ncnc2c1)c1ccc(Br)cc1`, the Potency is reported as inconclusive: 50.1 µM [inhibitor, partial curve, poor fit].
For `COc1ncccc1-c1cnc2n[nH]c(-c3ccc(F)cc3C)c2n1`, the Potency was active: 31.6 µM.
With `Cn1cc(CN2CCn3c(nnc3[C@@H]3C[C@@H](O)CN3Cc3ccccc3)C2)c2ccccc21` the Potency was inconclusive: 50.1 µM [inhibitor, partial curve, poor fit].
